Experimental data as given in article PMC4336329 (PLoS ONE, 2015).
Hit rate of the full screen: of about 310,000 compounds, about 2,200 (0.71%) showed an effect of 50% or more. Effects have a minus sign here. The list shows a part of the results.

Target: human ether-à-go-go-related gene (hERG) potassium channel (human, UniProt Q12809)
Assay: primary screen, population patch clamp on CHO cells stably expressing hERG

Chain of human ether-à-go-go-related gene (hERG) potassium channel (Q12809 whole entry, looked up): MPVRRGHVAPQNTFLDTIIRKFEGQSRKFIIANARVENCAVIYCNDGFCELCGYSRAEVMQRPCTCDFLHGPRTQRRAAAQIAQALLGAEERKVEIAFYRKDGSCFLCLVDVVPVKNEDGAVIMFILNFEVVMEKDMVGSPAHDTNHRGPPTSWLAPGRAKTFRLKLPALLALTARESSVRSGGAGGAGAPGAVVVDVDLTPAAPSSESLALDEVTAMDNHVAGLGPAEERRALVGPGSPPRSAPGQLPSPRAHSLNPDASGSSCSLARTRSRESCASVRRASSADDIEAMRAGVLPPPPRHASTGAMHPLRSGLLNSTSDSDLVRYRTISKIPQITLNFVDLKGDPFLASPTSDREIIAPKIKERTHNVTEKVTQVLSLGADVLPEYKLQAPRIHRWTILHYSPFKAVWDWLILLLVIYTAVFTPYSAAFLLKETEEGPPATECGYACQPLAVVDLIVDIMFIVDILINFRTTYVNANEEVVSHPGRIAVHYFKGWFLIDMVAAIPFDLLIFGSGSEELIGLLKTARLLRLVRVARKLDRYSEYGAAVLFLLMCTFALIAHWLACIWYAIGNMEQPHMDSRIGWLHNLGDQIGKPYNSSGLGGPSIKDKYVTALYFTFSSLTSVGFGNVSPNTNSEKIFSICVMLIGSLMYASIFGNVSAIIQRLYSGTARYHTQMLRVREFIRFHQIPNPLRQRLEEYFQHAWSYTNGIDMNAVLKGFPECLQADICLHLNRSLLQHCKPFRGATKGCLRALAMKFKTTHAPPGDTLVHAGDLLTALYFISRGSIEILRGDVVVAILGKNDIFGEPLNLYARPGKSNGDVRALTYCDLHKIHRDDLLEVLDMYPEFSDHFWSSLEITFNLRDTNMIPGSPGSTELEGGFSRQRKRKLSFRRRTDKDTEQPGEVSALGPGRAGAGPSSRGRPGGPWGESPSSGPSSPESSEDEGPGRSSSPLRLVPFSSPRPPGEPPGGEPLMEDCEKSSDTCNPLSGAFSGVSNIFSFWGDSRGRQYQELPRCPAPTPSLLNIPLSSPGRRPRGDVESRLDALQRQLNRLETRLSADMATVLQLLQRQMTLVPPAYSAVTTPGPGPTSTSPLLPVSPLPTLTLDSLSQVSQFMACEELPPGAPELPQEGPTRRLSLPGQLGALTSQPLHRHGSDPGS

Structure (SMILES) | hERG current change (%, negative = inhibition) at 1uM [%]
CC(C)CCNC(=O)CNC(=O)c1cccs1 | 9.83
O=C(O)C1(NS(=O)(=O)c2ccc(F)c(Cl)c2)CCCCC1 | 14.2
Nc1nc(NC(=O)CCCC(=O)O)nn1-c1ccccc1 | 8.76
Cc1nn(-c2ccccc2)c2c1C(O)n1c(nc3ccccc31)S2 (stereo not drawn) | 8.37
COc1cc(/C=N/NC(=O)C(N)=O)ccc1OCC(=O)N1C(C)CCCC1C (stereo not drawn) | 5.24
O=C(c1ccco1)N(Cc1cc2ccccc2[nH]c1=O)C1CCCCC1 | 22
COC(=O)c1cccc(N(CC(=O)NC2CCCCC2)C(=O)CNC(=O)c2cccs2)c1 | 13.3
COc1ccccc1NS(=O)(=O)c1cc(NC(=O)CNC(=O)c2ccc(C)s2)ccc1Cl | 10.2
CCCCc1cc(=O)oc2c(C)c(OCC(=O)NCC3CCC(C(=O)O)CC3)ccc12 (stereo not drawn) | 11.3
Cc1cc(C(=O)COC(=O)c2n[nH]c(=O)c3ccccc23)c(C)n1C(C)C | 4.81
CN(C)C(=O)c1ccc(N/C=C(\C=O)c2nc3ccccc3o2)cc1 | 2.79
CCCc1cc(=O)n2[nH]c(NCc3c(F)cccc3Cl)nc2n1 | 12.7
O=c1nc2n(c3ccc(Br)cc13)CCS2 | 9.96
Cc1cccc(C)c1OCC(=O)OC/C(O)=C(\C#N)c1nc2ccccc2[nH]1 | 11.7
O=C(c1cc(-c2ccccc2)nc2ccccc12)N1CCCc2ccccc21 | -0.0772
COC(=O)c1ccccc1NC(=O)CSc1nnc(C(CO)NC(=O)c2ccccc2Cl)n1C (stereo not drawn) | 9.46
COc1ccc2[nH]c3c(c2c1)CCN1C(=O)N([C@@H](C)C(=O)NCc2ccccc2)C(=O)[C@]31C | 2.82
CN(C(=O)Cn1cc(C#N)c2ccccc21)c1ccccc1 | -0.978
Cc1cc(/C=N/n2c(COc3ccccc3)nc3ccccc3c2=O)c(O)c([N+](=O)[O-])c1 | 0.106
CN(C)c1ccc(-n2cc3c(=O)n(C)c(=O)n(C)c3c2)cc1 | 7.08
O=C(COC(=O)c1cccc(S(=O)(=O)NCc2ccccc2)c1)NCC1CCCO1 (stereo not drawn) | 6.21
O=C(O)COc1ccccc1C1C2C(=O)N(c3ccc(F)cc3)C(=O)C2ON1c1ccccc1 (stereo not drawn) | -5.85

Structure (SMILES) | hERG current change (%, negative = inhibition) at 1uM [%]
O=C(NCCc1cn2ccccc2n1)c1ccc(Br)o1 | -15
COc1cc(C)nc(Oc2ccc(=O)[nH]n2)n1 | 7.36
CCC(=O)N/C=C/n1cnc2cc(C(F)(F)F)ccc21 | 2.72
COc1cc(C(=O)N2CCN(CC(O)COc3ccccc3)CC2)cc(OC)c1OC (stereo not drawn) | 11.8
O=C(NNC(=S)NC1CCCCC1)c1cccc(S(=O)(=O)Nc2ccccc2Cl)c1 | 12.3
c1ccc(CCNc2ncnc3c2cnn3-c2ccccc2)cc1 | -9.08
CCn1c(O)c(C=NCCc2c[nH]c3ccccc23)c(=O)[nH]c1=O | 22.9
Cc1noc(/C=C/N(C)C)c1S(=O)(=O)N1CCCC(C(=O)NCc2ccc(Cl)cc2)C1 (stereo not drawn) | 9.92
O=C1C2C3C=CC(C3)C2C(=O)N1c1ccc(-c2nc3ccccc3c(=O)o2)cc1 (stereo not drawn) | 1.72
CCCNC(=O)c1ccc2c(c1)nc(C)n2-c1cccc(C)c1 | 13.2
O=C(CCC(=O)OCC(=O)c1ccc([N+](=O)[O-])cc1)NC1CCCCC1 | 10.2
COc1ccc(C(C(N)=O)c2ncc(C(F)(F)F)cc2Cl)cc1 (stereo not drawn) | 5.25
O=C(OCC(=O)N1CCN(c2cccc(Cl)c2)CC1)c1ccco1 | 11.4
O=C(COC(=O)c1ccc(Br)o1)NCCc1ccccc1 | 9.51
Cc1nc(N2CCOCC2)[nH]c(=O)c1C | 13.9
CSc1ccc(CN(C)CC(=O)NC(=O)NCCC2=CCCCC2)cc1 | -1.53
COC(=O)c1cc(-c2ccc(S(=O)(=O)N3CCCC(C)C3)cc2)c(C(F)(F)F)s1 (stereo not drawn) | 6.46
Cc1cc(Br)ccc1OCc1nc(-c2cccnc2)no1 | 11.8
CCN(CC)C(=O)c1ccc2nc(-c3ccccc3)c(-c3ccccc3)nc2c1 | 7.94
COc1cc(/C=C/C(=O)N(C)CC(=O)Nc2ccccc2Br)cc2c1OCCO2 | 4.04
CC1CCc2c(sc(NC(=O)/C=C/c3cccs3)c2C(=O)O)C1 (stereo not drawn) | 16.7
COc1cc2nc(N(CCN(C)C)C(=O)c3ccc4ccccc4c3)sc2cc1OC.Cl | -1.65

Structure (SMILES) | hERG current change (%, negative = inhibition) at 1uM [%]
O=C(c1cc(-c2cccc(Cl)c2)on1)N1CCc2ccccc2C1 | 11.8
CCOP(=O)(OCC)C(Nc1ccc([N+](=O)[O-])cc1)c1ccc(Cl)cc1 (stereo not drawn) | -48.7
O=C(COc1ccc2ccc(=O)oc2c1)N1CCN(c2ccc(F)cc2)CC1 | 1.02
Cc1cc(SCC(=O)N/N=C/c2ccc(O)cc2O)nc2ccccc12 | 12.7
O=C(NNC1CC(=O)N(c2ccccc2)C1=O)c1ccco1 (stereo not drawn) | 7.73
Cc1ccc(S(=O)(=O)N=C2SCCCS2)cc1 | 4.6
O=C1/C(=C/c2ccccc2)SC(=S)N1CCCC(=O)N1CCCCC1CCO (stereo not drawn) | 8.82
Cc1ccc(C)c(NC(=S)N(Cc2cccc(Br)c2)CC2CCC(C(=O)O)CC2)c1 (stereo not drawn) | 6.31
COc1cc(/C=C/C(=O)OCC(=O)N2c3ccccc3CC2C)cc(OC)c1OC (stereo not drawn) | 10.1
O=C(CCCCCn1c(=S)[nH]c2ccc(N3CCOCC3)cc2c1=O)NCc1ccccc1 | 8.2
CCC(C(=O)OCC(=O)Nc1cccc(C(C)=O)c1)c1ccccc1 (stereo not drawn) | 18
CC(C)Nc1ccc(C(CC(N)=O)NC(=O)Cc2cccc3ccccc23)cc1[N+](=O)[O-] (stereo not drawn) | -1.01
CCN(CCO)Cc1csc2cccc(Br)c12.Cl | 0.578
Cc1cccc(C)c1NC(=O)CS(=O)CC(=O)Nc1ccc(N2CCOCC2)cc1 (stereo not drawn) | -1.58
CC1=C(C(=O)Nc2cccnc2)C(c2ccc3c(c2)OCO3)C2=C(CCCC2=O)N1 (stereo not drawn) | 18
CCc1ccc(NC(=O)Cn2c(=O)c3cccn3c3ccccc32)cc1 | 17.2
CCOC(=O)Cn1c(=O)c2c(nc3n2CCCN3CCc2ccccc2)n(C)c1=O | -6.03
O=c1[nH]cnc2c1nnn2Cc1ccccc1 | 11.7
Cc1cccc(-n2cc[nH]c2=S)c1 | 10.7
N#Cc1ccc(Cn2c(=O)c(C#N)c3n(c2=O)CCC3)cc1 | -3.72
Cc1ccccc1OCC(=O)Nc1ccc(N2CCN(C(=O)C(C)C)CC2)c(Cl)c1 | 3.02
Cc1ccc(-n2c(=O)[nH]c3c(oc4ccccc43)c2=O)cc1 | 9.51

Structure (SMILES) | hERG current change (%, negative = inhibition) at 1uM [%]
CC(=O)Nc1cccc(OCC(=O)NC(C)C(C)C)c1 (stereo not drawn) | 14.2
NC(=O)c1ccc(-n2nnnc2SCC(=O)Nc2ccc(N3CCOCC3)c(Cl)c2)cc1 | 7.05
Cl.NCC(CC(=O)O)c1ccc(Cl)cc1 (stereo not drawn) | 6.28
COc1ccc(C2=NN(C(=O)CSc3ncccn3)C(c3cccc(OC)c3OC)C2)cc1 (stereo not drawn) | 7.76
O=C(CCn1c(=S)oc2ccccc21)N1CCCCC1 | 3.72
Cc1cc(NC(=O)COC(=O)c2ccccc2S(=O)(=O)N(C)c2ccccc2)no1 | -0.553
Cc1ccccc1OCC(=O)NCCN(C)C | 7.24
Cc1nnc(SCC(=O)Nc2cccc(S(=O)(=O)NC3=NCCCCC3)c2)n1Cc1ccccc1 | 11.3
CCC(C)NC(=O)C(Cc1ccccc1)NS(=O)(=O)c1ccc2c(c1)CCC(=O)N2 (stereo not drawn) | 21.2
COc1ccc(N2C3=C(C(=O)CC(C)(C)C3)C(c3cnn(C)c3)C3=C2CC(C)(C)CC3=O)cc1 | 11
O=c1onc(-c2cccs2)n1Cc1ccccc1 | 13.4
CCCCCCCCCCCCN1[C@@H](CC(=O)OC)c2cc(C(F)(F)F)ccc2S1(=O)=O | -13.1
COc1cc(NC(=O)c2ccc3snnc3c2)cc(OC)c1 | 15.9
CNc1nc(SCC(=O)Nc2ccccc2)nc(N2CCOCC2)n1 | 6.03
Cc1cc(=O)n(C)c(=O)n1CCCCOc1cccc([N+](=O)[O-])c1 | 9.25
O=C(CSc1nnc2scc(-c3ccccc3)n12)Nc1nsc(-c2ccc(Cl)cc2)n1 | 3.71
CC(=O)Nc1ccc(NC(=O)c2cc(-c3ccccc3)nc3ccccc23)cc1 | 15.7
COc1ccc(CCN2CC(C(=O)N(C)Cc3ccc(C)o3)CCC2=O)cc1 (stereo not drawn) | 11.4
O=C(O)c1ccc(Cn2ccc3ccccc32)o1 | 15.7
COc1ccc(C(=O)NCC(=O)N/N=C(C)\C=C\c2ccccc2)cc1OC | 6.33
CCN=C1SC(CC(=O)Nc2ccccc2)C(=O)N1CC (stereo not drawn) | -2.06
